Screen size: about 120,000 compounds; about 5,300 (4.4%) were called active. The inconclusive results got no clear call from the source; some entries with a clear call stand among them for comparison. The call rests on the fitted dose curve; in most records, active means well fitted inhibition curve with a large enough effect; inconclusive means small, poorly fitted or top-dose-only effect; inactive means no such curve, though single readings can be large or run the other way. Potencies beside an inconclusive call are fits to weak or partial responses and may not hold up.
Assay: qHTS Primary assay for Inhibitors of Plasmodium falciparum Dd2 growth in vitro; further: nearly all actives have a fitted effect of over 65% in size;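 on activity, negative = inhibition: plate controls were DMSO vehicle for no effect and reference drug for full effect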
Settings: P. falciparum Dd2 growth, SYBR Green, 72 h; activity, negative = inhibition: at 28.9 µM (top of the series) unless noted; series mostly up to 28.9 µM
How it was run: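 Readout: SYBR Green fluorescence, 485 nm excitation, 535 nm emission, after ~16 h lysis at 37C. Before that, Dd2-infected red cells (2.5% hematocrit) grew 72 h with compound, 29 uM top final concentration.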
Potency means the concentration at half of the fitted maximal effect; tags describe the fitted curve by direction and shape.

Row | SMILES | Potency | activity, negative = inhibition | outcome
1 | CCOc1ccc(C2NC(=O)N(Cc3noc(C4CCCCC4)n3)C3=C2C(=O)OC3)cc1 (configuration not stated) | inconclusive: 20 µM [inhibitor, single point] |  | 
2 | CCOc1ccc(NC(=O)CSC2=Nc3ccccc3C3=NC(CC(=O)NCc4ccco4)C(=O)N23)cc1 (configuration not stated) | inconclusive: 14.1 µM [inhibitor, single point] |  | 
3 | CCOC(=O)C(Cc1c[nH]c2ccccc12)NC(=O)COc1ccc(Cl)c(C)c1 (configuration not stated) | inconclusive: 8.91 µM [inhibitor, single point] |  | 
4 | O=C(NC1CC1)[C@@H]1C[C@H](Oc2ccccc2)CN1S(=O)(=O)c1cccc(F)c1 |  | inactive: 11.6% | 
5 | O=C(c1cccc2c1CCN2C(=O)Nc1ccccc1)N1CCN(c2ccccc2)CC1 | inconclusive: 12.6 µM [inhibitor, partial curve, poor fit] |  | 
6 | O=C(Nc1ccccc1)N1CCC2(CC1)CC(N1CCOCC1)CCO2 (configuration not stated) | inconclusive: 2.51 µM [inhibitor, partial curve, poor fit] |  | 
7 | COc1ccc(C(=O)N2CCN3C(=O)c4cc(-c5ccc(Cl)cc5)ccc4NC(=O)[C@@H]3C2)cc1 | active: 6.31 µM |  | 
8 | COc1ccc(-c2noc(CSc3nnc(-c4ccncc4)n3-c3ccc(C)cc3)n2)cc1 | inconclusive: 11.2 µM [inhibitor, single point] |  | 
9 | COc1ccc(N2CC3CCC(C2)N3CC(F)(F)F)cn1 |  | inactive: 16.7% | 
10 | O=C(N[C@@H]1CCC[C@@H]1C(=O)NC1CCCCCC1)c1ccncc1 |  | inactive: -0.93% | 
11 | CCOc1ccc(OCC(=O)Nc2nnc3n2CCS3)cc1 |  | inactive: 4.93% | 
12 | Cc1ccc(Cl)c(OCC(=O)c2ccc3c(c2)N(CCCC(=O)NC2CC2)C(=O)CO3)c1 | inconclusive: 3.98 µM [inhibitor, single point] |  | 
13 | COc1ccccc1-n1c(/C=C/c2c(C)n(C)c3ccccc23)nc2ccccc2c1=O | active: 3.98 µM |  | 
14 | CN(C)C(=O)C1CN(C(=O)NCc2ccccc2)CC12CCOCC2 (configuration not stated) |  | inactive: 13.2% | 
15 | COc1ccc(C(=O)Nc2ccc(-c3cc4ccccc4oc3=O)c(C)c2)cc1OC | inconclusive: 17.8 µM [inhibitor, partial curve, poor fit] |  | 
16 | CC(C)c1noc([C@@H]2C[C@H]3C(=O)NCCCCCCN(C(=O)c4ccco4)[C@H]3C2)n1 |  | inactive: -7.98% | 
17 | O=C(NCc1ccc(F)cc1)C1(CCO)CCN(c2ncccn2)C1 (configuration not stated) |  | inactive: 22.2% | 
18 | CN(C)[C@@H]1CN(C2CCSCC2)CC[C@@H]1CNC(=O)C1CC1 |  | inactive: -21.5% | 
19 | COC(=O)c1cc2n(n1)CCN(C(=O)CNS(=O)(=O)c1cccs1)C2 |  | inactive: 2.24% | 
20 | O=C(NCCc1ccccc1)C(=O)NCC(c1cccnc1)N1CCN(c2ccccc2F)CC1 (configuration not stated) | inconclusive: 10 µM [inhibitor, partial curve] |  | 
21 | O=C(Cn1nc2n(c1=O)CCCCC2)Nc1ccccc1 |  | inactive: 11.8% | 
22 | O=C(C1CCC(Cn2c(=O)c3sccc3n(Cc3cccc(F)c3)c2=O)CC1)N1CCCCC1 (configuration not stated) | active: 8.91 µM |  | 
23 | COC(=O)c1cccc(NC(=S)N[C@H]2CO[C@H]3[C@@H]2OC[C@H]3OC(=O)Nc2ccccc2)c1 | inconclusive: 1 µM [inhibitor, full curve] |  | 

Row | SMILES | Potency | activity, negative = inhibition | outcome
24 | Fc1ccc(CN2CCC(Cc3nc(-c4cccnc4)n[nH]3)C2)c(F)c1 (configuration not stated) |  |  | inactive
25 | Cc1nc(-c2ccccc2)cc([C@H]2CN3CC[C@H]2C[C@@H]3CNC(=O)NC(C)C)n1 | inconclusive: 12.6 µM [inhibitor, single point] |  | 
26 | O=C(NC1CCCCCC1)c1ccc2c(c1)sc1nc(-c3ccccc3)cn12 | active: 10 µM |  | 
27 | CCN1CCN(c2ncnc3c2cnn3-c2ccc(C)cc2)CC1 | inconclusive: 17.8 µM [inhibitor, single point] |  | 
28 | CCCC1=Nc2cc(C(=O)NCCCN3CCCCC3CC)ccc2Sc2ccc(C)cc21 (configuration not stated) | inconclusive: 1.41 µM [inhibitor, full curve] |  | 
29 | C=C(C)CSc1nc2sc3c(c2c(=O)n1-c1ccccc1)CCC(C)C3 (configuration not stated) |  | inactive: 48.6% | 
30 | COc1ccc(-c2n[nH]c3c2C(c2ccc(O)cc2)N(c2ccc(Br)cc2)C3=O)cc1 (configuration not stated) | inconclusive: 12.6 µM [inhibitor, single point] |  | 
31 | CCCCc1cc(C[C@@H]2C[C@H](NC(=O)c3cccc(F)c3)C2(C)C)no1 | inconclusive: 31.6 µM [inhibitor, single point] |  | 
32 | COc1cccc(CN2CC3(C2)C(=O)N(Cc2ccccc2Cl)C(=O)[C@@H]2C[C@@H](O)CN23)c1 | inconclusive: 12.6 µM [inhibitor, partial curve, poor fit] |  | 
33 | COc1cccc(-c2nc(-c3c(C)noc3C)cc3c2cc(C)n3CCN(C)C)c1OC | inconclusive: 7.08 µM [inhibitor, partial curve, poor fit] |  | 
34 | CSc1cccc(NC(=O)N2CCN(c3cc(-c4noc(C)n4)ccc3C)CC2)c1 | inconclusive: 11.2 µM [inhibitor, single point] |  | 
35 | COc1ccccc1NC(=O)c1cc2c(n1C)CCN(Cc1cccc(C)c1)C2 | inconclusive: 20 µM [inhibitor, single point] |  | 
36 | CC(C)(C)C(=O)NCCc1noc(C2CC2)n1 |  | inactive: 21.3% | 
37 | CCc1ccc(CN2CCC3(CC2)Cc2ccccc2CNC3=O)cc1 | inconclusive: 20 µM [inhibitor, partial curve, poor fit] |  | 
38 | O=C1Nc2ccccc2CC12CCCN(CC1CC1)C2 (configuration not stated) | inconclusive: 8.91 µM [inhibitor, partial curve, poor fit] |  | 
39 | CCOC(=O)c1oc2c(c1C)-c1nn(Cc3ccccc3Cl)cc1CC2 | inconclusive: 10 µM [inhibitor, single point] |  | 
40 | COCCNc1ncnc2c1CN(c1ccc(C)cc1)C(=O)N(C)C2 | inconclusive: 5.62 µM [inhibitor, single point] |  | 
41 | COCCCNC(=O)c1ccc2c(c1)n(Cc1ccc(OC)cc1)c(=O)c1ccnn12 | inconclusive: 14.1 µM [inhibitor, partial curve, poor fit] |  | 
42 | Cc1ccc(NC(=O)N[C@H](Cc2ccccc2)C(=O)N2CCOCCNC(=O)CC2)cc1C |  |  | inactive
43 | COc1cc2c(cc1OC)CN(C(=O)C[C@@H]1CCNC[C@@H]1Cc1cc(-c3ccccc3)on1)CC2 | inconclusive: 1.26 µM [inhibitor, full curve] |  | 
44 | Cc1ccsc1C(=O)NC1CCc2nnc(C3CC3)n2CC1 (configuration not stated) |  | inactive: 25.6% | 
45 | COc1cc(OC)cc(C(=O)N2CCC(c3nc(C4CCOC4)no3)CC2)c1 (configuration not stated) | inconclusive: 0.0794 µM [inhibitor, full curve, poor fit] |  | 
46 | CN1C(=O)COC[C@@H]1[C@H](O)c1ccc(NC(=O)c2ccc3c(c2)OCO3)cc1 | inconclusive: 31.6 µM [inhibitor, single point] |  | 

Row | SMILES | Potency | activity, negative = inhibition | outcome
47 | CCc1ccc(S(=O)(=O)N2CCCN(C)c3ccccc32)cc1 | inconclusive: 17.8 µM [inhibitor, single point] |  | 
48 | CSCC(=O)N1CCC(C2CCN(C(C)=O)CC2)C1 (configuration not stated) |  | inactive: -6.36% | 
49 | CCc1ccccc1NC(=O)CN1C(=O)c2cccnc2Oc2ccc(Cl)cc21 |  | inactive: -15.8% | 
50 | CCn1cc(CN2CC[C@H](CO)[C@H](N(C)C)C2)c(C)n1 |  | inactive: 5.03% | 
51 | CN1C(=O)CCCCC1C(=O)NCCc1c[nH]c2ccccc12 (configuration not stated) | inconclusive: 6.31 µM [inhibitor, single point] |  | 
52 | O=C(Cn1cccc1-c1nc(-c2ccc(F)cc2)no1)NCCc1ccccc1 | inconclusive: 0.708 µM [inhibitor, partial curve] |  | 
53 | CCS[C@H]1CCN2C(=O)c3cc(-c4cc(Cl)ccc4OC)ccc3NC(=O)[C@H]12 | inconclusive: 15.8 µM [inhibitor, single point] |  | 
54 | CCOc1ccc(Br)cc1CNCCSc1nnnn1-c1ccccc1 | inconclusive: 15.8 µM [inhibitor, single point] |  | 
55 | CN(Cc1cnc2ccccn12)C(=O)c1cc(COc2ccc(F)cc2F)on1 | inconclusive: 12.6 µM [inhibitor, partial curve] |  | 
56 | CCOc1ccccc1CN1CCC2(CCN(C(=O)N(C)C)CC2)Oc2ccccc21 | inconclusive: 5.62 µM [inhibitor, partial curve] |  | 
57 | Cc1ccc(C)c(N2CCN(c3nc4ccccc4n4c(C)nnc34)CC2)c1 | inconclusive: 8.91 µM [inhibitor, partial curve, poor fit] |  | 
58 | COc1ccccc1-c1cc([C@H]2CN3CC[C@H]2C[C@@H]3COC(=O)Nc2ccc(C(C)(C)C)cc2)n(C)n1 | inconclusive: 8.91 µM [inhibitor, partial curve, poor fit] |  | 
59 | CC(C)Oc1ccc(CN2CCC(CO)(CN3CCCC3)CC2)cc1Cl | active: 12.6 µM |  | 
60 | CN(C)C[C@@H]1CN(c2ncccn2)C[C@H]1NS(=O)(=O)c1cccs1 | inconclusive: 17.8 µM [inhibitor, single point] |  | 
61 | CS(=O)(=O)N1CCC(C2CCN(C(=O)c3cccc(C#N)c3)C2)CC1 (configuration not stated) |  | inactive: 3.95% | 
62 | Cc1cccc(-n2ncc(C(=O)NCc3ccccn3)c2C2CCN(C(=O)OC(C)(C)C)CC2)c1 | active: 10 µM |  | 
63 | O=C1NC2(CCN(C(=O)CCc3cccnc3)CC2)CC1c1ccccc1 (configuration not stated) |  | inactive: 7.73% | 
64 | CCN1CCN(Cc2c(O)ccc3c(C)c(-c4ccccc4)c(=O)oc23)CC1 | inconclusive: 11.2 µM [inhibitor, single point] |  | 
65 | O=C(COc1ccc(F)cc1)NCC1Cn2cccc2CN1Cc1ccccc1 (configuration not stated) | inconclusive: 12.6 µM [inhibitor, single point] |  | 
66 | COc1cc(NC(=O)COc2ccc(-c3nnc4n3CCCC4)cc2)cc(OC)c1OC | inconclusive: 12.6 µM [inhibitor, single point] |  | 
67 | Cc1ccc(-n2c(=O)c3ccc(C(=O)NCc4ccccc4Cl)cc3n(CC(=O)Nc3cccc(F)c3)c2=O)cc1 | inconclusive: 17.8 µM [inhibitor, single point] |  | 
